By inhibition is commonly meant the change of the read-out against control, counted positive when it falls.

SMILES strings stand for the structures. Screen size: about 340,000 compounds; about 6,900 (2%) were called active. Cut-off read from the data, not from the text of the source: active = inhibition above about 30%; inactive = below that, where a call was filed. The list shows a part of the results, in another mix than the full data. Where no call is shown, the source filed none.

The assay deals with D(2) dopamine receptor (Homo sapiens) (UniProt P14416). The assay can be described thus: HTS Assay for Allosteric Antagonists of the Human D2 Dopamine Receptor: Primary Screen for Antagonists. Note: 0% is about no effect. Conditions: HEK293 TREx D2 cells, calcium flux, dopamine EC80; at 10 µM; stronger effect = higher value. The method, boiled down: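 Cells plated overnight at 30 C with tetracycline; no-wash calcium dye, 30–90 min RT; 10 s baseline; compound pinned; 180 s read; EC80 dopamine added; another 180 s read.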
Sequence of UniProt P14416 (P14416 whole entry, looked up): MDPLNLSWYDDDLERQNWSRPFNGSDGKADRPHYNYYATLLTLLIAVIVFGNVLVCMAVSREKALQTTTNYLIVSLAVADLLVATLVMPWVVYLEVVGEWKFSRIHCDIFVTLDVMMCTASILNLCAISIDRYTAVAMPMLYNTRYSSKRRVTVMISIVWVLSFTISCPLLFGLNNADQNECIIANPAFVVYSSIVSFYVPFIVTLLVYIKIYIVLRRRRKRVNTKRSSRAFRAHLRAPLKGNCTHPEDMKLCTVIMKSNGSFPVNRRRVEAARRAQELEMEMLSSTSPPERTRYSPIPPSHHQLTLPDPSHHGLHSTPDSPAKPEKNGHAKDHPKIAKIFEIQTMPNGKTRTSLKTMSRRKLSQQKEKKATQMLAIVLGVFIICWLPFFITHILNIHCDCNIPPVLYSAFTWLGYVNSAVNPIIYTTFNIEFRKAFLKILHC
In general terms: Calcium flux is commonly read through the fluorescence of an indicator in the cells.
As for `COCC1CCCN(Cc2cn(-c3ccccc3F)nc2-c2cc(C)sc2C)C1` (stereo not given), the inhibition was active: 41%.

With `CCc1cccc(NC(=O)CCNS(=O)(=O)c2cccc3nonc23)c1`, the inhibition turned out to be 17.2%.

As for `COc1ccccc1NC(=O)C1=C(C)Nc2nnnn2C1c1ccc(C(F)(F)F)cc1` (stereo not given), the inhibition was -14.5%.

Take `Cc1c(Cl)cccc1-n1ncc(C(=O)Nc2ccc(Br)cc2F)c1C1CCNCC1`: the inhibition is 10.9%.

Take `CCCCNC(=O)c1ccc2c(c1)ncn2-c1cc(OC)ccc1OC`: the inhibition was -11.1%.

On to `CC(=O)c1c(C)oc2c1cc(NS(=O)(=O)c1ccc(Br)cc1)c1ccccc12`, for which the inhibition was -6.29%.

Regarding `O=C(Nc1ccccc1F)c1ccc2c(Cl)c3c(nc2c1)CCC3`, the inhibition is -0.694%.

As to `CCCNc1ccc(-c2nc(-c3ccccn3)no2)cc1[N+](=O)[O-]`, the inhibition amounted to 5.07%.

Turning to `CN(CC(=O)NC(=O)NCc1ccccc1)CC(=O)Nc1ccc(Cl)c(C(F)(F)F)c1`, the inhibition is active: 35.2%.

Turning to `CCOc1ccccc1CNCc1cccn1-c1nnc(N2CCN(c3ccccc3)CC2)s1`, the inhibition came to 4.21%.

For `COC(=O)c1ccc(NC(=O)CCn2cnnn2)cc1`, the inhibition came out at 19.4%.

Regarding `CCN(CCCNC(=O)c1nn(-c2ccc(OC)cc2)c(=O)c2c1c1ccccc1n2C)c1ccccc1`, the inhibition is -16%.

Regarding `COc1ccc(S(=O)(=O)Nc2ccc(-c3cn4c(C)csc4n3)cc2)cc1`, the inhibition is -22.9%.

`COc1ccc(-n2ncc3c(NC4CCCC4)ncnc32)cc1`: the inhibition is -9.13%.

On to `COc1ccccc1S(=O)(=O)Cc1ccc(C(=O)NCc2ccc(Cl)cc2)o1`, for which the inhibition was -6.13%.

On to `Cc1ccc(N2CCN(S(=O)(=O)c3cccc4ccccc34)CC2)cc1Cl`, for which the inhibition was 4.56%.

Turning to `O=C(Nc1cccc(C(F)(F)F)c1)c1cc(CN2CCOCC2)on1`, the inhibition was -11.5%.

In the case of `COc1ccccc1/C=C/CN1CCC(CO)(Cc2ccccc2)CC1`, the inhibition was active: 53.2%.

As to `O=C(Cn1nc(C(F)(F)F)c2c1CCCC2)Nc1ccc(Br)cc1`, the inhibition was -13%.

On to `Cc1ccc(-n2nnnc2CNC(=O)c2cc(C(F)(F)F)cc(C(F)(F)F)c2)cc1C`, for which the inhibition was 15.8%.

Take `COc1cccc(CNC(=O)COc2cc(=O)n(C)c3ccccc23)c1`: the inhibition is 3.06%.

On to `COc1cccc(-c2noc(C3CC(=O)N(c4ccc(F)cc4)C3)n2)c1OC` (stereo not given), for which the inhibition was -3.55%.

For the molecule `COc1ccccc1CNC(=O)c1cc2sccc2n1Cc1ccc(Cl)cc1`, the inhibition was -7.9%.

With `COc1ccc(NC(=O)CSc2ccc3nc(-c4ccccc4)cn3n2)c(OC)c1`, the inhibition is -4.96%.

For `CCc1ccc(NC(=O)CCn2c(=O)c3cccn3c3ccccc32)cc1`, the inhibition was -16.4%.

`Cc1ccccc1NC(=O)CSc1nc2ccc(NC(=O)c3cccs3)cc2s1`: the inhibition was -3.72%.

`CSc1cccc(NC(=O)c2cccc(N3CCCS3(=O)=O)c2)c1`: the inhibition is -0.0028%.

As to `Cc1ccc(NC(=O)c2ccc3[nH]c(C)cc(=O)c3c2)cc1`, the inhibition was -16.2%.

On to `CCN1CCN(CCNC(=O)c2ccc3c(c2)N(Cc2cccc(Cl)c2)C(=O)c2ccccc2S3=O)CC1` (stereo not given), for which the inhibition is active: 40.3%.

With `CCOc1ccc(OCC)c(Nc2ccc3cc(S(=O)(=O)N4CCCC4)ccc3n2)c1`, the inhibition was -4.76%.

Turning to `CCC1=Nc2cc(C(=O)NC3CCC(C)CC3)ccc2Sc2ccc(C)cc21` (stereo not given), the inhibition is 2.31%.

For the molecule `CCC1CN(C(=O)N2CCC(C(=O)NCc3cccc(OC)c3OC)CC2)c2cc(C)ccc2O1` (stereo not given), the inhibition was -4.73%.

Turning to `CC(C)c1ccc(NC(=O)c2ccc(F)c(S(=O)(=O)N3CCc4ccccc43)c2)cc1`, the inhibition is -8.67%.

Take `O=C(C1CCCN(S(=O)(=O)c2cccc3nsnc23)C1)N1CCN(c2ccccc2F)CC1` (stereo not given): the inhibition was 14.8%.

On to `CCC(C)NC(=O)CSc1nc2n[nH]c(C)c2c(=N)n1-c1cc(Cl)ccc1C` (stereo not given), for which the inhibition was -13.9%.

Consider `COc1ccc(S(=O)(=O)c2cn(C)c3ccc(C)cc3c2=O)cc1`, for which the inhibition was -1.69%.

Take `Cc1cc(C)c2oc(C(=O)Nc3ccc(S(=O)(=O)N4CCCCCC4)cc3)cc(=O)c2c1`: the inhibition came to 0.574%.

Turning to `Cc1cccc(NC(=O)c2c(C)cc(C)nc2SCC(=O)c2ccccc2)c1`, the inhibition amounted to 4.08%.

As for `CNc1nc(C)nc(-n2nc(C)cc2C)n1`, the inhibition is active: 35.3%.

Turning to `O=C(Nc1ccc(S(=O)(=O)N2CCCCC2c2cccnc2)cc1)c1ccc(Br)cc1` (stereo not given), the inhibition was found to be 1.71%.

As to `Cc1cccc(NC(=O)COC(=O)CCCC2=NS(=O)(=O)c3ccccc3N2)c1`, the inhibition is -14.6%.

In the case of `COc1ccc(N(C(=O)CNC(=O)c2ccco2)C(C(=O)NC2CCCC2)c2ccncc2)cc1` (stereo not given), the inhibition was active: 51.1%.

Consider `CCOc1ccc(S(=O)(=O)Nc2cccc(-c3ccc(OCC)nn3)c2)cc1`, for which the inhibition is -15.7%.

On to `Cc1ccc(SCC(=O)Nc2ccc(C(=O)Nc3ccc(O)cc3)cc2)cc1`, for which the inhibition was active: 71.8%.

Turning to `COc1ccccc1CCNC(=O)C(=O)NCC(c1cccs1)S(=O)(=O)c1cccs1` (stereo not given), the inhibition is -14.5%.

As to `Cc1ccc(/C=C/c2onc(C)c2S(=O)(=O)N2CCC(C(=O)Nc3cc(C)ccc3C)CC2)cc1`, the inhibition turned out to be 14.4%.

Turning to `CCC(c1nnnn1C1CCCC1)N1CCN(c2ccccc2)CC1` (stereo not given), the inhibition was active: 52.1%.

In the case of `COc1cc(Cl)c(NC(=O)CCS(=O)(=O)c2ccc3c(c2)NC(=O)CO3)c(OC)c1`, the inhibition is -5.58%.

As to `CCCCCOc1ccc(Cn2c(=O)oc3ccccc32)cc1`, the inhibition is -1.74%.

In the case of `Cc1ccc(S(=O)(=O)Nc2cccc(C(=O)NCC(c3ccccc3)N(C)C)c2)cc1F` (stereo not given), the inhibition is active: 79.2%.

With `COc1ccc(CCNC(=O)c2ccc3c(c2)CCN3S(=O)(=O)c2ccc(C)cc2)cc1`, the inhibition came to 9.24%.

Consider `CC(C)(C)OC(=O)N1CCC(c2c(C(=O)NC3CCN(Cc4ccccc4)CC3)cnn2-c2ccc(F)cc2F)CC1`, for which the inhibition is -5.93%.

For the molecule `CCOc1ccc(NC(=O)C(=O)c2cc(C)n(-c3cc(C)cc(C)c3)c2C)cc1`, the inhibition was 1.3%.

In the case of `Cc1ccc(NC(=O)C2CCCN(S(=O)(=O)c3ccc4c(c3)oc(=O)n4C)C2)cc1Cl` (stereo not given), the inhibition was -6.77%.

Turning to `COc1ccc(-c2cc(C(=O)NCCc3ccccc3)c3c(-c4ccccc4)[nH]nc3n2)cc1OC`, the inhibition is -9.29%.

As for `O=C(Nc1ccccc1)C(=O)Nc1ccc2c(c1)N(C(=O)C1CC1)CCC2`, the inhibition is active: 35.2%.

Regarding `COc1ccccc1N1CCN(CC(O)COc2ccc(S(=O)(=O)N3CCOCC3)cc2)CC1` (stereo not given), the inhibition is active: 92.3%.

For `COc1cccc(NC(=O)CSC2=Nc3ccccc3C3=NC(CCC(=O)NCCc4ccccc4)C(=O)N23)c1` (stereo not given), the inhibition is 2.41%.

With `Cc1cccc(NC(=O)c2ccc3nc(C(C)C)oc3c2)c1C`, the inhibition was -10.2%.

Consider `O=c1c2ccccc2n(Cc2ccccc2Cl)c(=O)n1CCc1ccccc1`, for which the inhibition came to 14.8%.

Regarding `CCOC(=O)c1ccc(Nc2nc3ccc(C(=O)c4ccccc4)cc3n3c(C)nnc23)cc1`, the inhibition came out at 3.26%.

As for `CCCN(CCC)C(=O)Cn1c(=O)n(-c2ccc(CC)cc2)c(=O)c2ccc(C(=O)NCCc3ccccc3)cc21`, the inhibition turned out to be 10.7%.

For `Cc1ccc(NC(=O)CN2CCN(S(=O)(=O)c3ccc(C(C)C)cc3)CC2)cc1F`, the inhibition is 10.4%.

With `COc1ccc(Nc2nc(N)nc(N)c2S(=O)(=O)c2ccccc2)cc1`, the inhibition is 0.981%.

In the case of `Cc1cn(C)c(CC(=O)N2CCN(c3cccc(Cl)c3)CC2)c1C(=O)O`, the inhibition is 21.2%.

Consider `Cc1ccc(-n2nc(CO)c(C(=O)NC(C)CCCc3ccccc3)n2)cc1` (stereo not given), for which the inhibition was determined as 14.5%.

Turning to `COc1ccc(Br)cc1/C=N/NC(=O)CNC(=O)/C=C/c1ccccc1`, the inhibition is active: 76.3%.

`CCC(=O)N1CCc2cc(S(=O)(=O)CCC(=O)N3CCN(c4ccc(Cl)cc4)CC3)ccc21`: the inhibition was 6.59%.

With `COc1ccc(NC(=O)c2c(NCc3sccc3C)sc3c2CCCC3)c(OC)c1`, the inhibition is -2.67%.

With `CCc1nn2c(=O)cc(COC(=O)CNC(=O)COc3ccc(C)cc3)nc2s1`, the inhibition amounted to 6.14%.

For the molecule `CCCOc1ccc(CN(C(=O)Cc2coc3ccc(CC)cc23)C2CCS(=O)(=O)C2)cc1` (stereo not given), the inhibition was -5.35%.

For `CCCn1c(=O)sc2cc(NC(=O)c3ccc(OC)c(Br)c3)ccc21`, the inhibition was 17%.

Turning to `CC(C)CC(NS(=O)(=O)c1ccc2c(c1)oc(=O)n2C)C(=O)NCc1ccccc1Cl` (stereo not given), the inhibition is -2.66%.

In the case of `CC(C)c1ccc(NC(=O)c2ccc3c(c2)CCN3S(=O)(=O)c2ccccc2)cc1`, the inhibition was 3.23%.

With `O=C(Nc1nnc(S(=O)(=O)N2CCCc3ccccc32)s1)c1ccccc1Cl`, the inhibition came out at 22.9%.

With `O=C(Nc1ccc(O)c(-c2nc3ccccc3o2)c1)c1sc2ccccc2c1Cl`, the inhibition came to 1.55%.

Consider `COc1ccccc1N1CCN(C(=O)c2cn(CC(C)C)c(=O)c3c2c2ccccc2n3C)CC1`, for which the inhibition came out at 24.1%.

On to `O=C(CSCc1cnn(-c2ccccc2)c1-n1cccc1)NCc1ccc(Cl)cc1`, for which the inhibition turned out to be 18.4%.

In the case of `CCCOc1ccc(NC(=O)CC2C(=O)N(c3cccc(OC)c3)C(=O)N2Cc2cccs2)cc1` (stereo not given), the inhibition was found to be 0.279%.

With `Cc1nc2ccn(Cc3ccccc3)c(=O)c2cc1C(=O)N1CCN(c2ccccc2F)CC1`, the inhibition amounted to 0.143%.

Turning to `Cc1cc(F)ccc1S(=O)(=O)Nc1ccc2oc3c(c2c1)CC(C)CC3` (stereo not given), the inhibition amounted to 0.288%.

`Cc1cccc(C2C=C(c3ccc(C)c(C)c3)Nc3nnnn32)c1` (stereo not given): the inhibition amounted to 13%.

On to `COc1cc(OC)cc(-c2cc3nc(C)c(CCC(=O)NCc4ccccc4)c(C)n3n2)c1`, for which the inhibition was -10.8%.

`CCOc1ccccc1C(=O)NC1(C(F)(F)F)NC(=O)N(CCc2ccc(OC)c(OC)c2)C1=O` (stereo not given): the inhibition came out at 7.74%.

With `O=C(Nc1nc2c(s1)CCCCCC2)Nc1ccc(F)cc1F`, the inhibition was determined as 25.9%.

As for `CN1C(=O)Cc2cc(S(=O)(=O)NCCc3ccc(Cl)cc3)ccc21`, the inhibition is -12.5%.

For `COc1ccc(-c2noc(CSc3nnc(C)n3-c3ccc(C)cc3)n2)cc1OC`, the inhibition was determined as 0.153%.

In the case of `CCOc1ccccc1CNC(=O)C1CCN(S(=O)(=O)c2ccc3[nH]c(=O)ccc3c2)CC1`, the inhibition stood at 8.44%.

Turning to `CC(C)c1ccc(OCC(O)CN2CCN(c3ccccc3)CC2)cc1` (stereo not given), the inhibition was active: 78.3%.

On to `CCOc1ccccc1NC(=O)Cn1ncc2c(=O)oc3ccc(C)cc3c21`, for which the inhibition stood at 10.9%.

Regarding `CCOC(=O)c1c(C)oc2ncnc(Nc3ccc(OC)cc3OC)c12`, the inhibition was -7.28%.

As to `COc1ccccc1NC(=O)CSC1=Nc2ccccc2C2=NC(CCC(=O)NCCc3ccccc3)C(=O)N12` (stereo not given), the inhibition came to 7.86%.

Regarding `COC(=O)c1ccc(Cn2cnc3nc4c(cc3c2=O)CCCC4)cc1`, the inhibition came out at 19.5%.

Regarding `CC(=O)N1CCc2c(sc3c2c(=O)n(Cc2ccccc2)c(=O)n3Cc2ccc(C)cc2)C1`, the inhibition was 10.6%.

Regarding `CC(=O)c1ccc(N2CCN(C(=O)C3CCN(S(=O)(=O)c4c(C)noc4/C=C/c4ccc(C)cc4)CC3)CC2)cc1`, the inhibition is -0.0044%.

Values taken from PubChem BioAssay AID485344 (National Center for Advancing Translational Sciences (NCATS), 2010).
